# Some of the results follow.
# B1: HPL (Tachypleus tridentatus) (protein)
# chain: MEDDCTCVTDRSLEGKLMKHPSTPAVYQILDGCRRLVPNPPTYNNIYKNWECIQSNILEKLLCKCDSLSNGAELIKGSGDTVYLLSNGVKRPIADPETFNGFCFDWNKIKTYSDIVINSLSTGPIIIIKHHHHHH
# How the values were obtained:
# Assay in all cases: glycan array binding signal (z-score within array); higher = stronger binding
# Conditions in all cases: glycan notation: IUPAC condensed, linker removed
# Neu5Ac(a2-8)Neu5Ac = biological target: Neu5Ac(a2-8)Neu5Ac
# How it was run: (§1)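 Arrays were curated from the Consortium for Functional Glycomics database, 3228 in total, and kept only where the protein sequence was available. Binding is expressed as a within-array Z-score. This score was averaged across arrays of the same protein sequence at different concentrations or buffers and across linkers, and negative values can be read as non-binding.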
# [1] = biological target: Neu5Ac(a2-8)Neu5Ac(a2-3)Gal(b1-3)GalNAc(b1-4)[Neu5Ac(a2-3)]Gal(b1-4)Glc
# How it was run: as §1
# [2] = biological target: Neu5Ac(a2-8)Neu5Ac(a2-3)Gal(b1-3)GalNAc(b1-4)[Neu5Ac(a2-8)Neu5Ac(a2-3)]Gal(b1-4)Glc
# How it was run: as §1
# [3] = biological target: Neu5Ac(a2-8)Neu5Ac(a2-3)Gal(b1-4)Glc
# How it was run: as §1
# [4] = biological target: Neu5Ac(a2-8)Neu5Ac(a2-3)Gal(b1-4)GlcNAc
# How it was run: as §1
# [5] = biological target: Neu5Ac(a2-8)Neu5Ac(a2-3)[Gal(b1-3)GalNAc(b1-4)]Gal(b1-4)Glc
# How it was run: as §1
# [6] = biological target: Neu5Ac(a2-8)Neu5Ac(a2-3)[GalNAc(b1-4)]Gal(b1-4)Glc
# How it was run: as §1
# [7] = biological target: Neu5Ac(a2-8)Neu5Ac(a2-8)Neu5Ac
# How it was run: as §1
# [8] = biological target: Neu5Ac(a2-8)Neu5Ac(a2-8)Neu5Ac(a2-3)Gal(b1-4)Glc
# How it was run: as §1
# [9] = biological target: Neu5Ac(a2-8)Neu5Ac(a2-8)Neu5Ac(a2-3)[Gal(b1-3)GalNAc(b1-4)]Gal(b1-4)Glc
# How it was run: as §1
# [10] = biological target: Neu5Ac(a2-8)Neu5Ac(a2-8)Neu5Ac(a2-3)[GalNAc(b1-4)]Gal(b1-4)Glc
# How it was run: as §1
# [11] = biological target: Neu5Ac(a2-8)Neu5Ac(a2-8)Neu5Ac(a2-8)Neu5Ac(a2-3)[GalNAc(b1-4)]Gal(b1-4)Glc
# How it was run: as §1
# [12] = biological target: Neu5Ac(a2-8)Neu5Gc(a2-3)Gal(b1-4)GlcNAc
# How it was run: as §1
# [13] = biological target: Neu5Ac(b2-6)Gal(b1-4)GlcNAc
# How it was run: as §1
# Neu5Ac(b2-6)GalNAc = biological target: Neu5Ac(b2-6)GalNAc
# How it was run: as §1
# [14] = biological target: Neu5Ac9Ac(a2-3)Gal(b1-3)GlcNAc
# How it was run: as §1
# [15] = biological target: Neu5Ac9Ac(a2-3)Gal(b1-4)GlcNAc
# How it was run: as §1
# [16] = biological target: Neu5Ac9Ac(a2-6)Gal(b1-4)GlcNAc
# How it was run: as §1
# [17] = biological target: Neu5Gc(a2-3)Gal(b1-3)GlcNAc
# How it was run: as §1
# [18] = biological target: Neu5Gc(a2-3)Gal(b1-3)[Fuc(a1-4)]GlcNAc
# How it was run: as §1
# Neu5Gc(a2-3)Gal(b1-4)Glc = biological target: Neu5Gc(a2-3)Gal(b1-4)Glc
# How it was run: as §1
# [19] = biological target: Neu5Gc(a2-3)Gal(b1-4)GlcNAc
# How it was run: as §1
# [20] = biological target: Neu5Gc(a2-3)Gal(b1-4)GlcNAc(b1-3)Gal(b1-4)GlcNAc(b1-2)Man(a1-3)[Neu5Gc(a2-3)Gal(b1-4)GlcNAc(b1-3)Gal(b1-4)GlcNAc(b1-2)Man(a1-6)]Man(b1-4)GlcNAc(b1-4)GlcNAc
# How it was run: as §1
# [21] = biological target: Neu5Gc(a2-3)Gal(b1-4)[Fuc(a1-3)]GlcNAc
# How it was run: as §1
# [22] = biological target: Neu5Gc(a2-6)Gal(b1-4)GlcNAc
# How it was run: as §1
# Neu5Gc(a2-6)GalNAc = biological target: Neu5Gc(a2-6)GalNAc
# How it was run: as §1
# [23] = biological target: Neu5Gc(a2-8)Neu5Ac(a2-3)Gal(b1-4)GlcNAc
# How it was run: as §1
# [24] = biological target: Neu5Gc(a2-8)Neu5Gc(a2-3)Gal(b1-4)GlcNAc
# How it was run: as §1
# [25] = biological target: Neu5Gc(a2-8)Neu5Gc(a2-3)Gal(b1-4)GlcNAc(b1-3)Gal(b1-4)GlcNAc
# How it was run: as §1
# [26] = biological target: Neu5Gc(a2-8)Neu5Gc(a2-6)Gal(b1-4)GlcNAc
# How it was run: as §1
# [27] = biological target: Neu5Gc(b2-6)Gal(b1-4)GlcNAc
# How it was run: as §1
binder,measurement,setting,value
B1,glycan array binding signal (z-score),Neu5Ac(a2-8)Neu5Ac,-0.236
same,glycan array binding signal (z-score),[1],0.063
same,glycan array binding signal (z-score),[2],0.431
same,glycan array binding signal (z-score),[3],-0.175
same,glycan array binding signal (z-score),[4],-0.359
same,glycan array binding signal (z-score),[5],-0.113
same,glycan array binding signal (z-score),[6],-0.254
same,glycan array binding signal (z-score),[7],-0.143
same,glycan array binding signal (z-score),[8],-0.058
same,glycan array binding signal (z-score),[9],0.289
same,glycan array binding signal (z-score),[10],-0.215
same,glycan array binding signal (z-score),[11],0.102
same,glycan array binding signal (z-score),[12],-0.361
same,glycan array binding signal (z-score),[13],-0.383
same,glycan array binding signal (z-score),Neu5Ac(b2-6)GalNAc,-0.377
same,glycan array binding signal (z-score),[14],-0.334
same,glycan array binding signal (z-score),[15],-0.231
same,glycan array binding signal (z-score),[16],-0.318
same,glycan array binding signal (z-score),[17],-0.215
same,glycan array binding signal (z-score),[18],-0.155
same,glycan array binding signal (z-score),Neu5Gc(a2-3)Gal(b1-4)Glc,-0.266
same,glycan array binding signal (z-score),[19],-0.199
same,glycan array binding signal (z-score),[20],0.164
same,glycan array binding signal (z-score),[21],-0.205
same,glycan array binding signal (z-score),[22],-0.33
same,glycan array binding signal (z-score),Neu5Gc(a2-6)GalNAc,-0.359
same,glycan array binding signal (z-score),[23],-0.391
same,glycan array binding signal (z-score),[24],-0.415
same,glycan array binding signal (z-score),[25],-0.29
same,glycan array binding signal (z-score),[26],-0.184
same,glycan array binding signal (z-score),[27],-0.308

# — the supplement of paper PMC8728848
